Data on 77 molecules can be found in the supplement of paper PMC6135742.

Where a name gives a salt, the structure may show the parent alone. ± gives the standard deviation of the averaged measurements. Over roughly 2,600 compounds, “MBP+ mature oligodendrocyte number relative to DMSO vehicle control” has its median near -0.34; the highest 2% begin near 13. Some of the results follow.
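Further: 10 µM single dose with 3-day oligodendrocyte differentiation.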

The experiment concerns jimpy (Plp1 jimpy) mouse iPSC-derived oligodendrocyte progenitor cells. Nature of the experiment: MBP+ mature oligodendrocyte number relative to DMSO vehicle control (SDs above negative control mean); higher = more surviving jimpy oligodendrocytes (rescue). To be noted: 10 µM; 3 days.
As to `N[C@@H](CC(=O)O)C(=O)O` [L-Aspartic acid], the “MBP+ mature oligodendrocyte number” value was -0.394.
Consider `C[C@@H](O)[C@H]1C(=O)N2C(C(=O)O)=C(SCCNC=N)C[C@H]12` [Imipenem monohydrate], for which the “MBP+ mature oligodendrocyte number” value is -0.236.
On to `c1ccc2c(c1)CCCC2C1=NCCN1` (configuration not stated) [Tetrahydrozoline hydrochloride], for which the “MBP+ mature oligodendrocyte number” value was found to be 0.503.
On to `c1ccc2c(c1)CCCC2C1=NCCN1` (configuration not stated) [Tetrahydrozoline HCl], for which the “MBP+ mature oligodendrocyte number” value worked out at 0.744.
On to `CN(C)C[C@H](O)Cn1c2ccc(Br)cc2c2cc(Br)ccc21` (racemic) [Wiskostatin], for which the “MBP+ mature oligodendrocyte number” value was -2.75.
Next, `C#Cc1cccc(Nc2ncnc3cc(OC)c(OCCCCCCC(=O)NO)cc23)c1`: under -6.7; `CC(=O)S[C@@H]1CC2=CC(=O)CC[C@]2(C)[C@H]2CC[C@@]3(C)[C@@H](CC[C@@]34CCC(=O)O4)[C@H]12` [Spironolactone]: 1.84 ± 1.7.
Consider `CC(C)(C)NCC(O)COc1cccc2[nH]c(=O)[nH]c12` (racemic), for which the “MBP+ mature oligodendrocyte number” value was 0.869.
Next, `CCCc1cc(C(N)=S)ccn1` [Protionamide]: 1.33; `COc1cc2c(Nc3ccc(NC(=O)c4ccccc4)cc3)ncnc2cc1OCCCN1CCOCC1`: under -6.7.
Take `CC(=O)Nc1ccc(C(=O)Nc2ccccc2N)cc1` [CI994 (Tacedinaline)]: the “MBP+ mature oligodendrocyte number” value is -5.53.
Turning to `O=C(O)[C@]1(Cc2cccc(Nc3nccs3)n2)CC[C@@H](Oc2cccc(Cl)c2F)CC1`, the “MBP+ mature oligodendrocyte number” value was -3.79.
Take `C=C1CC[C@H](O)C/C1=C/C=C1\CCC[C@]2(C)[C@@H]([C@H](C)CCCC(C)C)CC[C@@H]12` [Vitamin D3]: the “MBP+ mature oligodendrocyte number” value stood at 5.56.
Next, `NC1(C(=O)O)CCCCC1` [1-Amino-1-cyclohexanecarboxylic acid hydrochloride]: -0.629; `CC(C)(O)[C@H]1CC[C@@](C)([C@H]2[C@@H](O)C[C@@]3(C)[C@@H]4C[C@H](O[C@@H]5O[C@H](CO)[C@@H](O)[C@H](O)[C@H]5O)[C@H]5C(C)(C)[C@@H](O[C@@H]6OC[C@@H](O)[C@H](O)[C@H]6O)CC[C@@]56C[C@@]46CC[C@]23C)O1` [Astragaloside A]: 0.955.
Next, `NNCCc1ccccc1` [Phenelzine sulfate]: 1.29.
In the case of `C[C@H]1O[C@H](O[C@H]2[C@H](O)[C@@H](O)[C@@H](O[C@H]3[C@H](O)[C@@H](O)C(O)O[C@@H]3CO)O[C@@H]2CO)[C@H](O)[C@@H](O)[C@@H]1N[C@H]1C=C(CO)[C@@H](O)[C@H](O)[C@H]1O` (some centres not stated) [Acarbose] it was -0.502; in that of `CC(C)(C=O)Cc1cc(C(C)(C)C)c(O)c(C(C)(C)C)c1`, -0.119.
`CNC1CCCN(c2c(F)cc3c(=O)c(C(=O)O)cn(C4CC4)c3c2OC)C1` (configuration not stated) [Balofloxacin]: the “MBP+ mature oligodendrocyte number” value was -0.107.
Next, `CN1CCC(=C2c3ccccc3C=Cc3ccccc32)CC1` [Cyproheptadine HCl]: under -5.15; `CN1CCC(=C2c3ccccc3C=Cc3ccccc32)CC1` [Cyproheptadine hydrochloride]: -2.79.
In the case of `NCC(O)C1CCCCCCC1` (configuration not stated) [2-Cyclooctyl-2-hydroxyethylamine hydrochloride] it was -0.544; in that of `CO[C@H]1/C=C/O[C@@]2(C)Oc3c(C)c(O)c4c(O)c(c(/C=N/N5CCN(C6CCCC6)CC5)c(O)c4c3C2=O)NC(=O)/C(C)=C\C=C\[C@H](C)[C@H](O)[C@@H](C)[C@@H](O)[C@@H](C)[C@H](OC(C)=O)[C@@H]1C` [Rifapentine], -1.28.
Consider `N=C(N)NC(=N)NCCc1ccccc1` [Phenformin HCl], for which the “MBP+ mature oligodendrocyte number” value stood at 8.34.
In the case of `NCCc1c[nH]cn1` [Histamine 2HCl] it was -0.945; in that of `NCCc1c[nH]cn1` [Histamine dihydrochloride], -0.439.
With `OC(Cn1cncn1)(Cn1cncn1)c1ccc(F)cc1F` [Fluconazole], the “MBP+ mature oligodendrocyte number” value is -0.415.
In the case of `Nc1[nH]cnc2ncnc1-2` [Adenine HCl] it was 1.06.
Next, `C[C@@H](NCCCc1cccc(C(F)(F)F)c1)c1cccc2ccccc12` [Cinacalcet HCl]: under -6.7; `CC(=O)Nc1cccc(-n2c(=O)n(C3CC3)c(=O)c3c(Nc4ccc(I)cc4F)n(C)c(=O)c(C)c32)c1`: -2.36; `CC[N+](C)(C)c1cccc(O)c1` [Edrophonium chloride]: -0.805.
In the case of `OCCN1CCN(CC/C=C2/c3ccccc3Sc3ccc(C(F)(F)F)cc32)CC1` [cis-(Z)-Flupenthixol dihydrochloride] it was under -4.47; in that of `COc1cc2ncnc(Sc3nnc(C)s3)c2cc1OC`, -6.01; in that of `Cc1cn[nH]c1` [4-Methylpyrazole hydrochloride], 0.657.
As to `Cc1ccc(S(=O)(=O)c2ccc([N+](=O)[O-])o2)cc1`, the “MBP+ mature oligodendrocyte number” value is -6.27.
In the case of `COC(=O)Nc1nc2cc(C(=O)c3cccs3)ccc2[nH]1` [Nocodazole] it was -4.95 ± 1.4.
In the case of `COc1cc(Br)c(Nc2nc(-c3c(C)nc4ncccn34)cs2)c(Br)c1` it was -4.58.
For `O=C(O)CCCCCCCC(=O)O` [Azelaic acid], the “MBP+ mature oligodendrocyte number” value was -0.276.
As for `CC(=Cc1ccc(C(=O)O)cc1)c1ccc2c(c1)C(C)(C)CCC2(C)C`, the “MBP+ mature oligodendrocyte number” value is 0.539.
On to `COc1ccc(-c2cc(=O)c3c(O)c(OC)c(OC)cc3o2)cc1O` [Eupatorin], for which the “MBP+ mature oligodendrocyte number” value was -3.85.
Next, `CC(C)(C)c1cnc(CSc2cnc(NC(=O)C3CCNCC3)s2)o1`: under -6.7; `CC(C)c1c(C(=O)Nc2ccccc2)c(-c2ccccc2)c(-c2ccc(F)cc2)n1CC[C@@H](O)C[C@@H](O)CC(=O)O` [Atorvastatin Calcium]: -4.61; `CC(C)c1c(C(=O)Nc2ccccc2)c(-c2ccccc2)c(-c2ccc(F)cc2)n1CC[C@@H](O)C[C@@H](O)CC(=O)O` [Atorvastatin calcium salt trihydrate]: -2.67.
In the case of `CN(C)CCC(c1ccc(Cl)cc1)c1ccccn1` (racemic) [(±)-Chlorpheniramine maleate] it was -1.14; in that of `CN(C)CCC(c1ccc(Cl)cc1)c1ccccn1` (racemic) [Chlorpheniramine Maleate], -1.1.
Next, `CCN[C@H]1CN(CCCOC)S(=O)(=O)c2sc(S(N)(=O)=O)cc21` [Brinzolamide]: 1.15 ± 1.8; `NC(=O)c1ccc(N(C(N)=O)c2c(F)cccc2F)nc1-c1ccc(F)cc1F`: 2.26; `C[N+]1(C)CCC(OC(=O)C(c2ccccc2)c2ccccc2)CC1` [4-DAMP methiodide]: 2.86.
Regarding `C[N+]1(C)CCC(OC(=O)C(c2ccccc2)c2ccccc2)CC1`, the “MBP+ mature oligodendrocyte number” value amounted to 0.467.
Next, `Oc1cc(O)c2c(c1)O[C@H](c1ccc(O)c(O)c1)[C@@H](O)C2` [(+)-Catechin Hydrate]: 0.0777; `CC(=O)Oc1ccccc1C(=O)Nc1ncc([N+](=O)[O-])s1` [Nitazoxanide]: 1.51; `O=c1cc(-c2ccccc2)oc2c(O)c(O)ccc12` [7,8-Dihydroxyflavone hydrate]: 1.97.
Next, `CCN(CC)CCOC(=O)C1(C2CCCCC2)CCCCC1` [Dicyclomine hydrochloride]: 9.71; `CCCc1cc(C)[nH]c(=O)c1CNC(=O)c1cc(-c2ccc(N3CCN(C(C)C)CC3)nc2)cc2c1cnn2C(C)C`: under -6.35; `CC(N/C(=N\C#N)Nc1ccncc1)C(C)(C)C` (configuration not stated) [Pinacidil]: 0.681.
Next, `COc1ccc([C@@H]2CC(=O)c3c(O)cc(O)cc3O2)cc1O` [Hesperetin]: 2.02.
With `Nc1c(CC(=O)O)cccc1C(=O)c1ccccc1` [Amfenac Sodium Monohydrate], the “MBP+ mature oligodendrocyte number” value was 5.73.
In the case of `CN(C)CCCN1c2ccccc2Sc2ccc(C(F)(F)F)cc21` [Triflupromazine hydrochloride] it was under -3.85.
In the case of `O=C1NC(=O)c2c1c(-c1ccccc1)cc1[nH]c3ccc(O)cc3c21` it was under -3.97; in that of `COc1cc(C(=O)OCCCN2CCCN(CCCOC(=O)c3cc(OC)c(OC)c(OC)c3)CC2)cc(OC)c1OC` [Dilazep hydrochloride], -3.47.
Next, `COc1ccc(-c2ccc3c(N4CCOC[C@@H]4C)nc(N4CCOC[C@@H]4C)nc3n2)cc1CO`: under -5.15.
With `N=C(NC(=O)c1nc(Cl)c(N)nc1N)Nc1ccccc1` [Phenamil methanesulfonate], the “MBP+ mature oligodendrocyte number” value is 0.681.
In the case of `C#CC(N)CCC(=O)O` (configuration not stated) [gamma-Acetylinic GABA], the “MBP+ mature oligodendrocyte number” value is -0.158.
In the case of `COc1c(C)c(C(=O)c2ccc(N)c(C(=O)O)c2)n2ccccc12` it was 1.5; in that of `NCCC[C@](N)(C(=O)O)C(F)F` (racemic) [DL-alpha-Difluoromethylornithine hydrochloride], -0.962.
In the case of `c1ccc(NCc2ccc(CNc3ccccn3)cc2)nc1`, the “MBP+ mature oligodendrocyte number” value is -1.17.
Next, `Cc1nnc(C(=O)NC(C)(C)c2nc(C(=O)NCc3ccc(F)cc3)c(O)c(=O)n2C)o1` [Raltegravir (MK-0518)]: 55.9; `C[C@@H]1C[C@H]2[C@@H]3C[C@H](F)C4=CC(=O)C=C[C@]4(C)[C@@]3(F)[C@@H](O)C[C@]2(C)[C@@]1(O)C(=O)CO` [Flumethasone]: 8.94; `O=C(NC[C@H]1CN(c2ccc(N3CCOCC3=O)cc2)C(=O)O1)c1ccc(Cl)s1` [Rivaroxaban]: 3.6.
Next, `Cc1cc2c(cc1CC(=O)c1sccc1S(=O)(=O)Nc1onc(C)c1Cl)OCO2` [Sitaxentan sodium]: 1.61.
Next, `O=C(O)c1cn(-c2ccc(F)cc2)c2cc(N3CCNCC3)c(F)cc2c1=O` [Sarafloxacin HCl]: 1.78; `CC[C@H](/C=C/[C@@H](C)[C@H]1CC[C@H]2[C@@H]3CC=C4C[C@@H](O)CC[C@]4(C)[C@H]3CC[C@]12C)C(C)C` [Stigmasterol]: -1.84; `O=C(Nc1cccc(Cl)c1)c1ccccn1`: -1.72.
Regarding `Clc1ccc(CCC(Cn2ccnc2)Sc2c(Cl)cccc2Cl)cc1` (configuration not stated) [Butoconazole nitrate], the “MBP+ mature oligodendrocyte number” value worked out at 12.2.
In the case of `C[C@@]1(C(=O)Nc2ccc(F)nc2)CCCN1c1nc(Nc2cc(C3CC3)n[nH]2)c2cccn2n1` it was under -6.7; in that of `CN(C)C(=O)Nc1cccc(-c2ccc(N(C)C)cc2)c1` [Atglistatin], 6.21.
Next, `N#Cc1ccc(C(c2ccc(C#N)cc2)n2cncn2)cc1` [Letrozole]: 3.69.
